This note sets out measurements from the antibiotic and cytotoxicity screens of Wong et al. (2023).

The other results are listed elsewhere or left out.

In this experiment the test system is HSkMC (human skeletal muscle cells). Kind of experiment: cytotoxicity call (relative viability < 0.9). Particulars: 10 µM.
For the compound `C[C@H]1CN([C@@H](C)CO)C(=O)c2cc(NC(=O)Nc3ccccc3)ccc2O[C@H]1CN(C)CC1CCCCC1`, the cytotoxicity call was “inactive”. `C[C@H]1CCCCO[C@@H](CN(C)C(=O)Nc2ccccc2)[C@@H](C)CN([C@@H](C)CO)C(=O)c2cc(NS(=O)(=O)c3ccc(F)cc3)ccc2O1`: the cytotoxicity call is “inactive”.

Regarding `Cc1ccc(Cn2nnc3c(=O)n(CC(N)=O)cnc32)cc1`, the cytotoxicity call was “inactive”. On to `Cc1noc(C)c1NC(=O)N(C)C[C@H]1Oc2ncc(C#CCN(C)C)cc2C(=O)N([C@@H](C)CO)C[C@H]1C`, for which the cytotoxicity call was “inactive”. The entry for `COc1ccc(NC(=O)N(C)C[C@@H]2Oc3c(NC(=O)C4CC4)cccc3C(=O)N([C@H](C)CO)C[C@H]2C)cc1` is “inactive”; for `C[C@@H]1CN([C@@H](C)CO)S(=O)(=O)c2ccc(C#CC3(O)CCCC3)cc2O[C@@H]1CN(C)C(=O)Nc1ccc(F)cc1` it is “inactive”. To `C[C@H]1CN([C@@H](C)CO)C(=O)c2cc(NC(=O)Cn3cnnn3)ccc2O[C@H]1CN(C)Cc1ccc(C(=O)Nc2ccccc2N)cc1` belongs “inactive”; to `Cc1cc(C(=O)Nc2cccc3c2O[C@@H](CN(C)S(=O)(=O)c2c(C)noc2C)[C@@H](C)CN([C@@H](C)CO)C3=O)n(C)n1`, “inactive”; to `CC(C)NC(=O)N(C)C[C@@H]1Oc2c(NS(=O)(=O)c3ccc(Cl)cc3)cccc2C(=O)N([C@H](C)CO)C[C@H]1C`, “inactive”. As for `N#Cc1ccc(NCCNC(=N)N)nc1`, the cytotoxicity call was “inactive”. In the case of `COc1ccc(NC(=O)Nc2ccc3c(c2)C(=O)N([C@@H](C)CO)C[C@H](C)[C@H](CN(C)Cc2ccc(Oc4ccccc4)cc2)O3)cc1`, the cytotoxicity call is “inactive”.

Regarding `C[C@H](CO)N1C[C@H](C)[C@@H](CN(C)C(=O)CCCN(C)C)OCCCC[C@H](C)Oc2ccc(NC(=O)Nc3ccc(F)cc3)cc2C1=O`, the cytotoxicity call is “inactive”. As for `CC(C)CC#Cc1ccc2c(c1)O[C@H](CN(C)C(=O)Cc1cccnc1)[C@@H](C)CN([C@@H](C)CO)S2(=O)=O`, the cytotoxicity call is “inactive”. `COc1ccc(COCCN2C[C@@H](C)[C@H](CN(C)S(=O)(=O)c3ccc(F)cc3)OCCCC[C@H](C)Oc3ccc(NC(=O)Nc4ccccc4)cc3C2=O)cc1`: the cytotoxicity call is “inactive”. To `COC(=O)[C@H]1[C@H](CO)[C@H]2Cn3c(cccc3=O)[C@H]2N1C(=O)C1CC1` belongs “inactive”; to `CC1(C)C(=O)C2CC3(O)C4=CC(=O)OC(c5ccoc5)C4(C)CCC3C(C)(C2=O)C1CC(=O)O` (stereo not given), “inactive”; to `COc1ccc(S(=O)(=O)Nc2cccc3c2O[C@@H](CN(C)S(=O)(=O)c2c(C)noc2C)[C@H](C)CN([C@@H](C)CO)C3=O)cc1`, “inactive”. As to `C[C@@H]1CN([C@H](C)CO)S(=O)(=O)c2ccc(C3=CCCC3)cc2O[C@@H]1CN(C)S(=O)(=O)c1ccc(F)cc1`, the cytotoxicity call is “inactive”. The entry for `Cc1noc(C)c1S(=O)(=O)Nc1ccc2c(c1)CC(=O)N([C@@H](C)CO)C[C@H](C)[C@H](CN(C)S(=O)(=O)c1ccc(Cl)cc1)O2` is “inactive”; for `C[C@H]1CN([C@@H](C)CO)C(=O)c2cc(C#CC3CC3)cnc2O[C@@H]1CN(C)S(=O)(=O)c1cccc(F)c1` it is “inactive”; for `C[C@@H]1CN([C@@H](C)CO)C(=O)Cc2cc(NS(=O)(=O)c3cn(C)cn3)ccc2O[C@H]1CN(C)Cc1ccccc1` it is “inactive”. Take `COCCNC(=O)C[C@H]1CC[C@H]2[C@@H](COC[C@@H](O)CN2C(=O)Nc2ccc3c(c2)OCO3)O1`: the cytotoxicity call is “inactive”. `COCCNC(=O)CCC(=O)NN=c1nc2ccccc2c2nc(C)[nH]n12`: the cytotoxicity call is “inactive”.

Turning to `C[C@@H]1CN([C@H](C)CO)C(=O)c2cc(NC(=O)C3CCCCC3)ccc2O[C@@H](C)CCCCO[C@H]1CN(C)Cc1ccc(Cl)c(Cl)c1`, the cytotoxicity call is “inactive”. In the case of `C[C@@H]1CCCCO[C@H](CN(C)CC2CCCCC2)[C@@H](C)CN([C@H](C)CO)C(=O)c2cc(NC(=O)Nc3ccc(F)cc3)ccc2O1`, the cytotoxicity call was “inactive”. Take `COC(=O)Nc1nc2ccc(Sc3ccccc3)cc2[nH]1`: the cytotoxicity call was “inactive”. Take `Cc1noc(C)c1S(=O)(=O)Nc1ccc2c(c1)CC(=O)N([C@@H](C)CO)C[C@H](C)[C@@H](CN(C)Cc1ccc3c(c1)OCO3)O2`: the cytotoxicity call was “inactive”. Turning to `C[C@@H]1CN([C@H](C)CO)C(=O)c2cc(NC(=O)Nc3ccc(C(F)(F)F)cc3)ccc2O[C@@H]1CN(C)C(=O)Nc1ccc(C(F)(F)F)cc1`, the cytotoxicity call is “inactive”.

Take `COc1ccc2c3c([nH]c2c1)[C@@H](CO)N(C[C@]13CN(Cc2ccccc2)C1)S(=O)(=O)c1cn(cn1)C`: the cytotoxicity call is “inactive”. Turning to `OCC1OC(O)(CO)C(O)C1O` (stereo not given), the cytotoxicity call was “inactive”.
